Experimental data reported in PubChem BioAssay AID504706 (National Center for Advancing Translational Sciences (NCATS), 2011).
The whole screen tested about 320,000 compounds, of which about 200 (0.062%) were called active. This list was built around the results that the source calls inconclusive (neither active nor inactive); the mix of calls is not that of the screen. The call rests on the fitted dose curve; in most records, active means well fitted activation curve with a large enough effect; inconclusive means small, poorly fitted or top-dose-only effect; inactive means no such curve, though single readings can be large or run the other way. No potency is given beside an inconclusive call; the fits are too rough.

Assay: qHTS assay for re-activators of p53 using a Luc reporter; further: nearly all actives have a fitted effect of over 45% in size; on activity change, positive = activation: % of control where 0% means no effect
Conditions: H1299 p53-A138V BP100-luciferase reporter, luminescence, 24 h; series mostly up to 92.2 µM; activity change, positive = activation: at the top concentration
How it was run: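 p53-null H1299 cells stably carrying temperature-sensitive p53-A138V and a BP100-luciferase reporter were pinned with compounds (4-point, 1:5 series) and held 24 hrs at 37 deg C. Luminescence was read 10 min after detection reagent.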
Potency means the concentration at half of the fitted maximal effect; tags describe the fitted curve by direction and shape.

SMILES | Potency | activity change, positive = activation
Cc1ccc2oc(-c3ccc(NC(=O)c4cccnc4)cc3)nc2c1 | inconclusive [activator, partial curve, poor fit] | 
CC(C)NC(=O)N(Cc1ccc(Cl)cc1)Cc1cccs1 |  | inactive: -0.952%
O=S(=O)(NCc1ccccc1)c1ccccc1NCCc1ccccc1 | inconclusive [activator, partial curve, poor fit] | 
Cc1cc(N2CCN(C)CC2)nc2ccc(NC(=O)c3ccccc3F)cc12 | inconclusive [activator, partial curve, poor fit] | 
Cc1ccc(NC(=O)CSc2nnc(C)c(=O)n2N)c(C)c1 |  | inactive: -25.3%
CCCS(=O)(=O)c1nc(S(=O)(=O)c2ccc(C)cc2)c(NCCCN2CCCC2=O)s1 |  | inactive: -17.7%
CCN(CC)c1ccc(C2Nc3cccc4cccc(c34)N2)cc1 | inconclusive [activator, single point] | 
Cn1c(SCc2ccccn2)nnc1-c1cnccn1 | inconclusive [activator, single point] | 
COC(=O)c1cc(/C=C/c2ccccc2)on1 |  | inactive: -4.8%
O=C(OCC(=O)N1CCOCC1)c1ccccc1Cc1ccccc1 | inconclusive [activator, full curve, poor fit] | 
O=C1NC(=O)/C(=C/c2ccc(O)cc2)S1 |  | inactive: 17.5%
COc1ccc(NS(=O)(=O)c2ccc(O)c(NC(=O)c3ccc(S(=O)(=O)N4CCCCCC4)cc3)c2)cc1 |  | inactive: -2.29%
O=C(COc1ccccc1)Nc1c(C(=O)N2CCC(N3CCCCC3)CC2)oc2ccccc12 | inconclusive [activator, single point] | 
COc1ccc(Nc2nc(N)nc(CCl)n2)cc1 | inconclusive [activator, partial curve, poor fit] | 
CCOC(=O)N/N=C/C=C/c1ccccc1 | inconclusive [activator, full curve, poor fit] | 
O=C(N/N=C/c1cccc(OC(=O)c2ccco2)c1)c1ccc(F)cc1 | inconclusive [activator, partial curve, poor fit] | 
O=C1N=C(N2CCOCC2)S/C1=C/c1cc2c(cc1[N+](=O)[O-])OCO2 | inconclusive [activator, single point] | 
CC(=O)c1cccc(NC(=S)Nc2cccc3ccccc23)c1 | inconclusive [activator, partial curve, poor fit] | 
CCCCn1cnc2c(c(-c3ccccc3)c(-c3ccccc3)n2Cc2ccco2)c1=N |  | inactive: -7.7%
O=C(CSc1ncccc1-c1nc2ccccc2[nH]1)Nc1ccc2c(c1)OCCO2 | inconclusive [activator, partial curve, poor fit] | 
COc1ccccc1C(=O)NNC(=O)c1ccccc1F | inconclusive [activator, full curve, poor fit] | 
COCCNC(=O)c1cn(Cc2c(F)cccc2Cl)nn1 |  | inactive: -1.69%
COc1ccc(NC(=O)c2cccs2)cc1 | inconclusive [activator, full curve, poor fit] | 
Fc1ccccc1CSc1nc2ccccc2[nH]1 | inconclusive [activator, partial curve, poor fit] | 

SMILES | Potency | activity change, positive = activation
C/C(=N/Nc1nc(-c2ccccc2)cc(-c2ccccc2)n1)c1ccc(N)cc1 | active: 31.6 µM | 
COC(=O)Cc1ccc(NC(=O)c2cccs2)cc1 | inconclusive [activator, partial curve] | 
O=C(COC(=O)c1c[nH]c2ccccc12)NC1CCCC1 |  | inactive: 12.3%
Cc1ccccc1Nc1nc(CSc2nnc(-c3ccoc3C)n2C)cs1 | inconclusive [activator, full curve, poor fit] | 
CC1CCCC(C)N1C(=O)COC(=O)c1ccc2c(c1)OCO2 (stereo not given) | inconclusive [activator, full curve, poor fit] | 
Cc1ccc(-c2n[nH]c(=S)n2-c2ccccc2)cc1 |  | inactive: -3.46%
OCCN1CCN(Cc2cccc(Oc3ccc(Cl)cc3)c2)CC1 | inconclusive [activator, single point] | 
Cc1nn(-c2ccccc2)c(C)c1NC(=O)COC(=O)c1ccc(S(=O)(=O)C(F)F)cc1 | inconclusive [activator, single point] | 
O=C(Nc1ccc(C(=O)O)cc1)/C(=C\C=C\c1ccccc1)NC(=O)c1ccccc1Br |  | inactive: 22.5%
COC(=O)c1sccc1NC(=O)Nc1cccc(OC)c1 |  | inactive: -1.59%
CCOC(=O)c1c(NC(=O)c2cc3n(n2)C(C(F)(F)F)CC(c2cccs2)N3)sc(C)c1C (stereo not given) |  | inactive: 1.98%
O=S(=O)(N/N=C/c1ccccc1OCc1ccc(Cl)cc1)c1ccccc1 | inconclusive [activator, partial curve, poor fit] | 
CCOc1ccc(NC(=O)c2ccc(OC)cc2)cc1 | inconclusive [activator, partial curve, poor fit] | 
COc1ccc2c(c1)cc1n2CCN=C1NN | inconclusive [activator, partial curve, poor fit] | 
COCCCNC(=O)CSc1nc2ccccc2c(=O)n1CCC(=O)NCCc1ccc(OC)c(OC)c1 |  | inactive: -3.17%
Cc1c(C(=O)O)cccc1-c1ccc(/C=N/Nc2ccc(Br)cc2)o1 | inconclusive [activator, full curve, poor fit] | 
CCN(C(=O)c1ccco1)c1nnc(-c2cccnc2)s1 | inconclusive [activator, full curve] | 
CC(C)NCC(O)COc1c(F)cc(Br)cc1F (stereo not given) | inconclusive [activator, partial curve, poor fit] | 
O=C(NCc1ccccc1)c1cccc(OCC(=O)N2CCN(C(=O)c3ccco3)CC2)c1 | inconclusive [activator, single point] | 
COC(=O)CSc1nc2ccccc2n1CC(=O)N(C(C)C)C(C)C | inconclusive [activator, partial curve, poor fit] | 
Cc1ccc(C(=O)Nc2cccc(C(=O)N/N=C/c3ccc(O)cc3)c2)cc1 |  | inactive: 22.4%
O=C1CC(c2ccco2)Sc2nc3ccccc3n21 (stereo not given) | inconclusive [activator, partial curve, poor fit] | 
CN1CCC(=O)N([C@H](CSc2ccc(Br)cc2)c2ccccc2)CC1 |  | inactive: 8.26%
c1ccc(-n2c(-c3cccs3)nc3nc4ccccc4nc32)cc1 |  | inactive: 3.27%

SMILES | Potency | activity change, positive = activation
Cc1ccc(-c2noc(-c3cccs3)n2)cc1 | inconclusive [activator, full curve, poor fit] | 
Cc1nc2cc3nc(C)sc3cc2s1 | inconclusive [activator, partial curve, poor fit] | 
COc1ccc(S(=O)(=O)N2CCN(CC(=O)Nc3cc(OC)cc(OC)c3)CC2)cc1 |  | inactive: 4.28%
CCc1cccc2c(C(=O)COC(=O)c3ccccc3)c[nH]c12 | inconclusive [activator, partial curve, poor fit] | 
COc1ccccc1Nc1nc(N)nc(-c2cc3ccccc3o2)n1 | inconclusive [activator, single point] | 
O=[N+]([O-])c1ccc(-[n+]2ccc3ccccc3c2)c([N+](=O)[O-])c1 |  | inactive: -28.2%
O=C(/C=C/c1ccco1)NC(=S)Nc1ccc(Cl)cn1 | inconclusive [activator, partial curve, poor fit] | 
Cc1cccc([N+](=O)[O-])c1NC(=O)COC(=O)C1CCCO1 (stereo not given) | inconclusive [activator, partial curve, poor fit] | 
CCOc1ccc(CN2CCC(=O)NC2=O)cc1 | inconclusive [activator, single point] | 
CCOc1c(OC)cccc1C1CC(=O)Nc2cc(OC)c(OC)cc21 (stereo not given) |  | inactive: -4.36%
Cc1cc(C)nc(NC(=O)/C=C/c2ccc(Cl)cc2Cl)c1 | inconclusive [activator, partial curve, poor fit] | 
S=C(NCCSCc1c(Cl)cccc1Cl)Nc1ccccc1 |  | inactive: 6.18%
CCn1nc(C(=O)N2CCN(Cc3nc4ccccc4s3)CC2)c2ccccc2c1=O | inconclusive [activator, full curve, poor fit] | 
COc1cccc(C(=O)NNC(=O)c2cccnc2)c1 |  | inactive: 0.645%
O=C(O)COc1ccccc1/C=N/NC(=O)Cc1ccccc1 | inconclusive [activator, single point] | 
O=C(Nc1ccccc1C(F)(F)F)c1cc2ncc(CCCl)cn2n1 | inconclusive [activator, single point] | 
Cc1nc2cc(-c3cccc(F)c3)nn2c(N2CCN(C(=O)c3ccco3)CC2)c1C | inconclusive [activator, full curve, poor fit] | 
CCN(CC)CCCN1C(=O)C2C(C(=O)Nc3ccc(C(C)C)cc3)C3C=CC2(O3)C1C(=O)NC1CCCCC1 (stereo not given) | inconclusive [activator, full curve, poor fit] | 
Cc1nn2cc(-c3ccc(N)cc3)nc2s1 | inconclusive [activator, single point] | 
CNc1nc(-c2ccc3c(c2)CCN3C(=O)c2ccccc2C)cs1 |  | inactive: 10.8%
Brc1ccc(OCCOc2cccc3cccnc23)cc1 | inconclusive [activator, partial curve, poor fit] | 
C/C(=N/Nc1nc(C)cc(C)n1)c1ccc(Br)cc1 | inconclusive [activator, single point] | 
